The values below come from patent publication US20090312249A1 (KOREA ADVANCED INSTITUTE OF SCIENCE AND TECHNOLOGY, published 2009).

The target of test [1] is T1, MD-2 (myeloid differentiation protein-2) (UniProt Q9Y6Y9 19-160, limits assumed).
T1 sequence (looked up): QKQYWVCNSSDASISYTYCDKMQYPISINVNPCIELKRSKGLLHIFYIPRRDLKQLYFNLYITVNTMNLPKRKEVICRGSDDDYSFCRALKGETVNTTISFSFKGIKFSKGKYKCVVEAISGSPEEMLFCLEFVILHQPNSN
The test can be described thus: SPR (BIAcore 3000): TOY8 amine-coupled on a CM5 chip, MD-2 at 8 to 250 nM as analyte, 25 C, 1:1 Langmuir fit. As for the experimental part: (§1) The interactions for binding between TFL and MD-2, between TOY3 and MD-2, and between TOY8 and MD-2 were analyzed with BIAcore 3000 (BIAcore AB, Uppsala, Sweden). TFL, TOY3 or TOY8 (30 μg/ml) in 10 mM sodium acetate (pH 5.5) was immobilized on a CM5 sensor chip using the amine-coupling method. MD-2 in HBS-EP buffer (BIAcore AB) at a concentration of 8 nM to 250 nM was passed over the surface of the sensor chip at a flow rate of 60 μl/min. The interactions were monitored as the changes of surface plasmon resonance response at 25° C. After 1 min of monitoring, the same buffer was introduced onto the sensor chip in place of the MD-2 solution to start the dissociation. The sensor surface was regenerated with 10 mM Glycine (pH 2.3) at the end of each experiment. Both the association rate constant (kₐ) and the dissociation rate constant (kd) were calculated according to the BIAevaluation software (version 3.1; BIAcore AB) using a program named 1:1 (Langmuir) binding model. The dissociation constant (KD) was determined by kₐ/kd.
Background: SPR reads the build-up and loss of mass on a sensor chip optically.

Test [2] addresses T1, MD-2 (myeloid differentiation protein-2). Nature of the test: SPR (BIAcore 3000), TOY8 amine-coupled on CM5 chip, MD-2 8-250 nM as analyte, 1:1 Langmuir model, 25 C. As for the experimental part: as §1
Test [3] has the same target. The test can be described thus: SPR (BIAcore 3000): TOY3 amine-coupled on a CM5 chip, MD-2 at 8 to 250 nM as analyte, 25 C, 1:1 Langmuir fit. As for the experimental part:
as §1

For test [4] the target is unchanged. The test can be described thus: SPR (BIAcore 3000), TOY3 amine-coupled on CM5 chip, MD-2 8-250 nM as analyte, 1:1 Langmuir model, 25 C. How it is done: as §1

B1: TOY8 (Fc fusion)
chain: ADPEPCVEVVPNITYQCMELNFYKIPDNLPFSTKNLDLSFNPLRHLGSYSFFSFPELQVLDLSRCEIQTIEDGAYQSLSHLSTLILTGNPIQSLALGAFSGLSSLQKLVAVETNLASLENFPIGHLKTLKELNVAHNLIQSFKLPEYFSNLTNLEHLDLSSNKIQSIYCTDLRVLHQMPLLNLSLDLSLNPMNFIQPGAFKEIRLHKLTLRNNFDSLNVMKTCIQGLAGLEVHRLVLGEFRNEGNLEKFDKSALEGLCNLTIEEFRLAYLDYYLDDIIDLFNCLTNVSSFSLVSVTIERVKDFSYNFGWQHLELVNCKFGQFPTLKLKSLKRLTFTSNKGGNAFSEVDLPSLEFLDLSRNGLSFKGCCSQSDFGTTSLKYLDLSFNGVITMSSNFLGLEQLEHLDFQHSNLKQMSEFSVFLSLRNLIYLDISHTHTRVAFNGIFNGLSSLEVLKMAGNSFQENFLPDIFTELRNLTFLDLSQCQLEQLSPTAFNSLSSLQVLNMASNQLKSVPDGIFDRLTSLQKIWLHTNPWDCSCPRIDYLSRWLNKNSQKEQGSAKCSGSGKPVRSIICPTLE[human IgG1 Fc cut from this listing]
notes: also called TLR4 decoy receptor protein 8; CHO-TOY8 product
In general, koff refers to the first-order rate constant of dissociation. Read a high koff as a short-lived complex. For orientation: kon means a measure of how fast the partners come together. As usually defined, the Kd is the free concentration of one partner at which half of the binding sites on the other are occupied at equilibrium, for simple one-to-one binding. A low value points to a tighter complex. B1: in test [1], the koff came to 0.00177 s⁻¹ and the kon is 31500 M⁻¹ s⁻¹. In addition, in test [2], the Kd was approximately 56 nM.

B2: TOY3 (Fc fusion)
chain: ADPEPCVEVVPNITYQCMELNFYKIPDNLPFSTKNLDLSFNPLRHLGSYSFFSFPELQVLDLSRCEIQTIEDGAYQSLSHLSTLILTGNPIQSLALGAFSGLSSLQKLVAVETNLASLENFPIGHLKTLKELNVAHNLIQSFKLPEYFSNLTNLEHLDLSSNKIQSIYCTDLRVLHQMPLLNLSLDLSLNPMNFIQPGAFKEIRLKELALDTNQLKSVPDGIFDRLTSLQKIWLHTNPWDCSCPRIDYLSRWLNKNSQKEQGSAKCSGSGKPVRSIICPTLE[human IgG1 Fc cut from this listing]
notes: Bears only the A patch of TLR4; also called TLR4 decoy receptor protein 3; CHO-TOY3 product
B2: in test [3], binding was characterised by a dissociation constant (Kd) of 76.1 nM, the koff came out at 0.00188 s⁻¹ and the association rate constant (kon) is 24700 M⁻¹ s⁻¹. In test [4], this molecule displayed a Kd of approximately 76 nM.
